Measurements taken from the supplement of paper PMC11417369.
± gives the standard deviation of the averaged measurements. The list shows a part of the results.

System: PfAP2-LT AP2 domain (GST-tagged)
Experiment: gcPBM binding intensity (ln(normalized median fluorescence intensity)); higher = stronger DNA binding
How it was run: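 The binding buffer was 1× PBS containing 1% milk, 0.2 mg/ml BSA, 0.5% salmon testes DNA and 0.03% Triton X-100. In it, GST-tagged P. falciparum DNA-binding domains expressed in E. coli were applied for 1 h to an Agilent 4 × 180k array of primer-extended double-stranded 36-bp intergenic genomic probes plus negative controls. Binding intensity, read with Alexa488 anti-GST antibody and a 488 nm scan, is the highest Masliner-normalised natural-log median intensity across replicate spots of either probe orientation.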

Sequence	gcPBM binding intensity (ln)
AAAAAAAAAAAAAAAAAAAAAAAAACAATGAATTTA [GTGCAC_negctrl_site698]	8.82 ± 0.19
AGTAGATATAATTATAGTACTTTGATGTTTTCTTTA [XGTACX_site5038]	8.63 ± 0.47
ATGTATTTATTATTTAGTACACATTATTTTCTTATA [XGTACX_site6365]	8.82 ± 0.4
TAAACAGTATGCAACGCATGCGTTGTTATATATAAA [TGCATGCA_site232]	8.99 ± 0.41
AAATTTTCTTTTAAGTGTACGAAATTTAGTATTTCA [XGTACX_site7819]	8.54 ± 0.3
ATTTTTTTTTTTTTTTTTTTATTCTTAATTCATATA [CACACA_negctrl_site342]	8.52 ± 0.51
TATATATAAATATATACACACATGAAAATAAATAAA [CACACA_site2514]	8.95 ± 0.4
TTTTTGTTTGTTCACGACTACATTATGTCATAAATG [CACACA_negctrl_site597]	8.91 ± 0.33
GTCATATATTATAATAGTACATAAATAATTGATGCC [XGTACX_site3567]	8.97 ± 0.33
TTTTTCTATATTTTCTTTTATAAAATATATAATTTT [GTGCAC_negctrl_site345]	8.29 ± 0.66
CACAGAAATAGAGATACACACACACCGATATTTATG [CACACA_site9313]	9.79 ± 0.29
ATAGTTATTTTATAGCGTACACAATAAATATATAAA [XGTACX_site4445]	8.69 ± 0.47
CAAATGTAGAAAATGTGTACATAAAAAAAAAAAAAA [XGTACX_site8276]	8.87 ± 0.47
AGTCAATTTTGTGTGTCAACATTTATATAAAGAATG [TGCATGCA_negctrl_site400]	8.89 ± 0.35
TGTGAAAATTATGGGGCATGCAATACTTTAAAAATA [TGCATGCA_site653]	8.9 ± 0.52
TTTTGGCTGATCAGATTTAACAAAAAAAAAAAAAAA [CACACA_negctrl_site671]	8.21 ± 0.39
CAAATATATATTTTCTGTACAAATACAATTAATACT [XGTACX_site2694]	8.54 ± 0.52
CCTTCAATTTACATAACACACATTTAACCATAATAA [CACACA_site2394]	8.72 ± 0.41
TTTAGCCAATTTTTAAAGTTTAAAAAAGAAAAAAGA [CACACA_negctrl_site118]	8.16 ± 0.35
TATTAAAAATACATATGTACTCATAGCATAAAACAT [XGTACX_site8686]	8.89 ± 0.3
ATATATATATTTGTGTGTACATATTAATTTGTATGA [XGTACX_site4047]	9.13 ± 0.35
AACGCGAACAATTTATAGATAACTTTTAATTATTAT [GTGCAC_negctrl_site179]	8.63 ± 0.5
TATATATATATAAACTGTACTATTTTATGTTAAAAG [XGTACX_site3630]	8.63 ± 0.34
ATTTAATACAAATACACACACAAATATATACATATA [CACACA_site3747]	9.44 ± 0.34
